Measured values published in patent US20140378657A1 (UTI LIMITED PARTNERSHIP, published 2014).

Target: T1, β-lactamase-SBP fusion
T1 construct: also called SBP-tagged β-lactamase
Test: SPR (BIAcoreX), β-lactamase-SBP amine-coupled to the chip

B1: streptavidin mutein SBPM18 (S27A, G48T) (designed binder)
chain: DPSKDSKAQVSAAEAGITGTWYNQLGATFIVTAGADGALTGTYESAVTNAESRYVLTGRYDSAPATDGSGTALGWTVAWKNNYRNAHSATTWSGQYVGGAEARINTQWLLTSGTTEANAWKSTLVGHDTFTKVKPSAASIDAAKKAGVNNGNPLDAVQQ
notes: Secreted from B. subtilis with the sacB signal peptide; tetramer in solution (64.5 kDa found, 66 kDa expected); In column experiments it was coupled to Affi-gel 15; also called Streptavidin SBPM18
- Kd: 0.0157 µM
- koff: 0.000711 s⁻¹
- kon: 45300 M⁻¹ s⁻¹
